Measured values from article PMC4336329 (PLoS ONE, 2015).
Hit rate of the full screen: of about 310,000 compounds, about 2,200 (0.71%) showed an effect of 50% or more. The effect is printed as a negative number. The list shows a part of the results.

Target: human ether-à-go-go-related gene (hERG) potassium channel (human, UniProt Q12809)
Test: primary screen, population patch clamp on CHO cells stably expressing hERG

Chain of human ether-à-go-go-related gene (hERG) potassium channel (Q12809 whole entry, looked up): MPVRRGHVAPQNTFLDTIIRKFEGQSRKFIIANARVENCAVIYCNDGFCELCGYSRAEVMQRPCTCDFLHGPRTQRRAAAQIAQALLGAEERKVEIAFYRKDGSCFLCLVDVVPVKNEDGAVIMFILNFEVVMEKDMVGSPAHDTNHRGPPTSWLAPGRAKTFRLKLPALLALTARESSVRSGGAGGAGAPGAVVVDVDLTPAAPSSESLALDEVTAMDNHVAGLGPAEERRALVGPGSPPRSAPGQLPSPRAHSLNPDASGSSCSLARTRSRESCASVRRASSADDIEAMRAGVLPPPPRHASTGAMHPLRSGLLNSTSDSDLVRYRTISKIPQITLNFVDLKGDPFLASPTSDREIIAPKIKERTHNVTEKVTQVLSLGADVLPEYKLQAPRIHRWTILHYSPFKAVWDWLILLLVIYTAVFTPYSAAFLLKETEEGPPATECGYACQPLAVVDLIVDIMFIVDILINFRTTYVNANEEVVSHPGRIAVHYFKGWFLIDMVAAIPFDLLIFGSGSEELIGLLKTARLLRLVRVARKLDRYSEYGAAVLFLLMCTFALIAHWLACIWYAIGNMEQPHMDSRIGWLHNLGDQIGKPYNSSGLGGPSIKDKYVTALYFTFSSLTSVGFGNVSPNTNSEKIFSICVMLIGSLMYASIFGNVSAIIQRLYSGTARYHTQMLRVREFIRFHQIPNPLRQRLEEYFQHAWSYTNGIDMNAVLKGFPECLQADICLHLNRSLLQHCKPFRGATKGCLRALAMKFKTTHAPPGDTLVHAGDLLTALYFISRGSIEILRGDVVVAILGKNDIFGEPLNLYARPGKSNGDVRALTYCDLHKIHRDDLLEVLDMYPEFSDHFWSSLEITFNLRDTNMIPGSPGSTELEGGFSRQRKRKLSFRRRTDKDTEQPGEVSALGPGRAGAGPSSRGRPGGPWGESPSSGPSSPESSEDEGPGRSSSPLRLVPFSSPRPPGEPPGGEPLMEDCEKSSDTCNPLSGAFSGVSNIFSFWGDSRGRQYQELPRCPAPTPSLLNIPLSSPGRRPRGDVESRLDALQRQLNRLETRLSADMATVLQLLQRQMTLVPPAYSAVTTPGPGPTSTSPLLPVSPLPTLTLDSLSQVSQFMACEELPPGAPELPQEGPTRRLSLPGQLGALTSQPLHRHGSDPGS

In order of falling “hERG current change (%, negative = inhibition) at 1uM” value:
1. Cc1cccc(N(C(=O)CCC(=O)Nc2cc(C)on2)C(C(=O)NC2CCCC2)c2cccnc2)c1 (centres unmarked)  28.3%
2. C/C(=N\NC(=S)NCc1ccccc1)c1ccc(Br)cc1  17.2%
3. N#Cc1cc(-c2ccccc2)c[nH]c1=O  16.4%
4. COc1ccc(-c2nc3cnccn3c2Nc2ccc(C)cc2)cc1  15.9%
5. CCn1cc(C(=O)N2CCC3(CC2)OCCO3)c(=O)c2cc(S(=O)(=O)N3CCCC3)ccc21  15.9%
6. Cc1cc(C)cc(Nc2nc3ccccc3c(=O)[nH]2)c1  15.6%
7. CS(=O)(=O)N(CC(=O)N1CCOCC1)c1cc(Cl)ccc1Cl  15%
8. Cc1cc(C)n(Cc2ccc(C(=O)O)cc2)n1  15%
9. CCn1ccnc1C(O)c1ccc(N(C)C)cc1 (centres unmarked)  14.7%
10. Cc1onc(-c2ccccc2Cl)c1C(=O)NCc1ccccn1  13.7%
11. CCOC(=O)c1c(S(=O)(=O)N2CCN(c3ccc(C(C)=O)cc3)CC2)c(C)n(C)c1C  13%
12. COc1ccc(CNC(=O)C(C)n2nc(C)c3c(C)n(-c4ccccc4)nc3c2=O)c(OC)c1 (centres unmarked)  12.4%
13. Cc1ccc(N2C(N)=C(C#N)C(c3ccsc3)C3=C2CC(C)(C)CC3=O)cc1 (centres unmarked)  12.1%
14. O=C(CC(Nc1ccc(F)cc1)C(=O)OCC(=O)c1cccs1)c1ccccc1 (centres unmarked)  10.6%
15. CCS(=O)(=O)c1nc(S(=O)(=O)c2ccc(C)cc2)c(NCCCn2ccnc2)s1  10.5%
16. COC(=O)C(C)Sc1nc(N)c(NC(=O)c2ccco2)c(=O)[nH]1 (centres unmarked)  10.1%
17. FC(F)(F)c1cccnc1Oc1ccc(C2=NCCS2)cc1  9.75%
18. O=C(NCCN1CCOCC1)c1ccc(Cl)cc1O  9.62%
19. O=C(Cc1csc(-c2ccccc2)n1)NCc1ccco1  8.73%
20. CN(c1ccccc1)S(=O)(=O)c1ccc(C(=O)OCC(=O)NCc2cccs2)cc1  8.57%
21. Cc1c(C(=O)O)oc2c1C(O)CC(C)(C)C2 (centres unmarked)  8.24%
22. CCC(C)N1CC(=O)N2C(c3ccc(OC)cc3OC)c3[nH]c4ccccc4c3C[C@H]2C1=O (some centres unmarked)  8.24%
23. CCC(C)N1C(=O)/C(=C/c2ccc3c(c2)CCN3CCCCl)C(=O)NC1=S (centres unmarked)  8.23%
24. COc1ccc(N2CCN(c3ncccn3)CC2)cc1  8.11%
25. CC(=O)NC1C(Oc2ccccc2C)OC(CO)C(O)C1O (centres unmarked)  7.79%
26. COC(=O)c1sccc1NC(=O)NC1CCCCC1  7.73%
27. Cc1noc(C)c1COC(=O)CNC(=O)c1cccc(F)c1  7.55%
28. O=C1c2ccccc2C2=Nc3ccccc3SC(c3ccccc3F)C12 (centres unmarked)  7.51%
29. O=C(O)COc1ccccc1/C=N/NC(=O)c1cccc(S(=O)(=O)N2CCOCC2)c1  7.13%
30. COCCN(C(=O)c1cc2c(s1)CCC2)c1c(N)n(CC(C)C)c(=O)[nH]c1=O  6.68%
31. COc1cccc(NC(=O)C2CCN(S(C)(=O)=O)CC2)c1  5.92%
32. O=C(Nc1ccccc1-c1nc2ccccc2s1)c1cccnc1Cl  5.88%
33. O=C(O/N=C1\CCCc2ccccc21)c1cccc(Cl)c1  5.58%
34. O=C(NC(N1CCOCC1)C(Cl)(Cl)Cl)c1ccccc1Cl (centres unmarked)  5.58%
35. O=C(c1ccc(-n2cncn2)c([N+](=O)[O-])c1)N1CCN(S(=O)(=O)c2ccccc2F)CC1  5.37%
36. CCC(c1nnnn1CCC(C)C)N1CCC(C(N)=O)CC1 (centres unmarked)  5.03%
37. CC1CCN(C(=O)CCc2nnc(-c3ccccc3)o2)CC1  3.92%
38. CN(C)c1ccc(NC2=C([N+](=O)[O-])CS(=O)(=O)C2)cc1  3.75%
39. S=c1[nH]nc(-c2cc(-c3ccco3)[nH]n2)n1-c1cccc2ccccc12  3.73%
40. O=[N+]([O-])c1ccc(/C=N/NC(=S)Nc2ccccc2F)o1  3.67%
41. COc1ccc(C2=NC(C)(C)Cc3cc(OC)c(OC)cc32)cc1OC.Cl  3.53%
42. O=C(CSc1nc2ccccc2n1CC(=O)NCc1ccccc1)NCc1ccco1  3.15%
43. COc1ccccc1CN1C(=O)c2cccc3cccc(c23)C1=O  2.75%
44. COc1ccc(-c2nc(CS(=O)CC(=O)NCCC3=CCCCC3)c(C)o2)cc1 (centres unmarked)  2.52%
45. CCN(Cc1cnn(C)c1)C(=O)c1cc(COc2ccc(F)cc2F)on1  2.01%
46. CCOc1ccc(C(NC(=O)/C=C/c2ccco2)c2ccc(OC)c(OC)c2)cc1 (centres unmarked)  1.81%
47. O=C(NCc1cccnc1)/C(=N\O)c1ccccc1  1.64%
48. CS(=O)(=O)c1ccc(C(=O)OCC(=O)NC(=O)Cc2ccccc2)cc1  1.47%
49. CCn1[nH]c(=O)c(=Nc2c(C)n(C)n(-c3ccccc3)c2=O)cc1-c1ccc(Cl)cc1  -0.399%
50. CC(=O)c1c(C)[nH]c(C(=O)Nc2nc(-c3ccccc3)c(C)s2)c1C  -2.64%
51. CCOC(=O)c1sc(C)c2c1NC1(CCCCC1)NC2=O  -8.48%
52. Cc1ccnc2nc(C(=O)OCC(=O)Nc3ccc4c(c3)OC(F)(F)O4)nn12  -11.3%
53. COc1ccc(C(=O)N/C(=C\c2cn(S(=O)(=O)N(C)C)c3ccccc23)C(=O)N2CCN(C)CC2)cc1  -15.5%
54. COc1ccccc1NC(=O)CSc1nc2nccnc2c(=O)n1Cc1cccs1  -19.1%
55. COc1ccc(C2CC(c3cccs3)=NN2C(=O)c2ccccc2)cc1OC (centres unmarked)  -19.2%
56. COc1cc2c(cc1OC)C(=O)Cc1ccc3c(c1CN(C)CC2)OCO3  -39.4%
